In PMC4336329 (PLoS ONE, 2015):
In all, about 310,000 compounds went through this assay and about 2,200 (0.71%) showed an effect of 50% or more. Effects have a minus sign here. The list shows a part of the results.

Biological target: human ether-à-go-go-related gene (hERG) potassium channel (human, UniProt Q12809)
Experiment: primary screen, population patch clamp on CHO cells stably expressing hERG

Chain of human ether-à-go-go-related gene (hERG) potassium channel (Q12809 whole entry, looked up): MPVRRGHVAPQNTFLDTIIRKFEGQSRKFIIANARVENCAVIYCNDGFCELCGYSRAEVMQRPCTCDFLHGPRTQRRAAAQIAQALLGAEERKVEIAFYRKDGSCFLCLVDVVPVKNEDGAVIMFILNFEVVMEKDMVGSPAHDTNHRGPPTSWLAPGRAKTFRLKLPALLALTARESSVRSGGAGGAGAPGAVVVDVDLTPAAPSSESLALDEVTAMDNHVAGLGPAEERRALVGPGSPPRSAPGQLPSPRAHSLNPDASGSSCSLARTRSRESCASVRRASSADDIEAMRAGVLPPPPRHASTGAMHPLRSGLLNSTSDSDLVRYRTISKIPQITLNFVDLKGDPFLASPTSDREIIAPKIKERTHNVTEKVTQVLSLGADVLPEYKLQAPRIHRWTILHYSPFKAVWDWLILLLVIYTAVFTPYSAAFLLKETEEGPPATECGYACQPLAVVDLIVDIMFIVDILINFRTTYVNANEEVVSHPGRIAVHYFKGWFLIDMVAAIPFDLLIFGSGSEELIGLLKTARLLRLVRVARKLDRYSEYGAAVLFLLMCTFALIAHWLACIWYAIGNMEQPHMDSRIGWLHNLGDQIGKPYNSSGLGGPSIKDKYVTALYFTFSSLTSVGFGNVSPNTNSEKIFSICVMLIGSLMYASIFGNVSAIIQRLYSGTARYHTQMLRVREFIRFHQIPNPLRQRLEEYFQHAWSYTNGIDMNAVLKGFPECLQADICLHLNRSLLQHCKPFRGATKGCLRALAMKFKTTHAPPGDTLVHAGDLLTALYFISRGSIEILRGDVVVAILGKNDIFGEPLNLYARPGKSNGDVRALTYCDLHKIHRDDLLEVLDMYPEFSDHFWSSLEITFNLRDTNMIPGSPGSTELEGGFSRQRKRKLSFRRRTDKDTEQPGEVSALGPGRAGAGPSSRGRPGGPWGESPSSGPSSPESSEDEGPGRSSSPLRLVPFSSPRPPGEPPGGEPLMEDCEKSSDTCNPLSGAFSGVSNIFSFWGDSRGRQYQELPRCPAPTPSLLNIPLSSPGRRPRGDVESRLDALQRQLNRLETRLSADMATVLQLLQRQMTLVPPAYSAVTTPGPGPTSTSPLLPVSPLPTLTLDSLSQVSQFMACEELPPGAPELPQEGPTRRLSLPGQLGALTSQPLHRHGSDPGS

Compared with `Cc1cc(C(=O)COC(=O)c2nccnc2N)c(C)n1C`, `CCOC(=O)c1cn(CC)c2cc(N3CCSCC3)c(F)cc2c1=O` is lower in “hERG current change (%, negative = inhibition) at 1uM” value: 14.9% for the first, -11.1% for the second.

Compared with `N#Cc1ccccc1OCc1cccc(S(=O)(=O)N2CCOCC2)c1`, `CC(Sc1ccc(Cl)cc1)C(=O)Nc1ccc(S(=O)(=O)N2CCOCC2)cc1` (centres unmarked) is lower in “hERG current change (%, negative = inhibition) at 1uM” value: 11.3% for the first, 5.79% for the second.

Going from `Cc1c(C(=O)NCCSCc2cccc(C(F)(F)F)c2)cnn1-c1ccc(Cl)cc1` to `COc1ccc(CNC(=O)c2sc(=S)n(-c3ccccc3)c2N)cc1`, the “hERG current change (%, negative = inhibition) at 1uM” value rises from 1.51% to 4.76%.

Going from `COc1ccc(C)cc1Nc1nc(C)nc2c1oc1ccccc12.Cl` to `CCCc1nc(-c2ccccc2)c(-c2ccc(OC)c(OC)c2)c(=O)[nH]1`, the “hERG current change (%, negative = inhibition) at 1uM” value falls from 22.3% to 11.6%.

Compared with `CN(c1ccc(C(=O)Nc2ccccn2)cc1)S(=O)(=O)c1ccccc1`, `O=S(=O)(Nc1ccc(Cl)cn1)c1ccccc1` is higher in “hERG current change (%, negative = inhibition) at 1uM” value: 6.58% for the first, 27.4% for the second.

First: Cc1ccc2nc(NC(=O)CN3C(=O)NC4(CCCCC4)C3=O)sc2c1
Second: Cc1nnc(SCC(=O)Nc2cccc(S(=O)(=O)N3CCCCC3)c2)s1
The “hERG current change (%, negative = inhibition) at 1uM” value of the first is lower: 2.67% for the first, 5.35% for the second.

Going from `COc1ccc(OC)c(NC(=O)CSc2nc3c(c(=O)n(C)c(=O)n3C)n2C)c1` to `Cn1c(=O)c2c(ncn2CC(=O)N/N=C/C=C\c2ccccc2[N+](=O)[O-])n(C)c1=O`, the “hERG current change (%, negative = inhibition) at 1uM” value falls from 7.54% to 3.02%.

First: Cc1ccc(-n2ncc3c2CCCC3NC(=O)CCC2=NNC(=O)CC2)cc1C (centres unmarked)
Second: COc1ccc(C)cc1N(CC(=O)NC1CCCC1)C(=O)CCC(=O)Nc1nc(C)cs1
The “hERG current change (%, negative = inhibition) at 1uM” value of the first is higher: 7.4% for the first, 0.975% for the second.

Compared with `COCCCNC(=O)c1ccc2c(c1)CCN2S(C)(=O)=O`, `CCN1CCN(C(=O)c2ccc(OC)c(S(=O)(=O)Nc3ccc(C)cc3)c2)CC1` is higher in “hERG current change (%, negative = inhibition) at 1uM” value: -20.5% for the first, -2.18% for the second.

First: CC(CC1C(C#N)=C(N)OC2=C1C(=O)CCC2)c1ccccc1 (centres unmarked)
Second: Cn1nc(N)c2c(-c3ccccc3)c(C#N)c(N)nc21
The “hERG current change (%, negative = inhibition) at 1uM” value of the first is lower: -5.8% for the first, 12.4% for the second.

First: CCOC(=O)C1CCCN(C(=O)c2cc(CN3C(=O)c4ccccc4C3=O)ccc2OC)C1 (centres unmarked)
Second: COc1ccccc1C(=O)Nc1ccc2c(c1)CC1(C(=O)N(C)C(=O)N(C)C1=O)C1CCCN21 (centres unmarked)
The “hERG current change (%, negative = inhibition) at 1uM” value of the first is higher: 16.9% for the first, -8.17% for the second.

Going from `O=C(COC(=O)/C=C/c1ccc([N+](=O)[O-])cc1)NC1CCCCC1` to `CCC1CCCCN1C(=S)NC(=O)c1ccc([N+](=O)[O-])cc1` (centres unmarked), the “hERG current change (%, negative = inhibition) at 1uM” value rises from 3.11% to 10%.

First: COC(=O)C1=C(c2cc3ccccc3s2)C[C@@H]2CC[C@H]1N2C(=O)NC(C)C
Second: COc1ccc(C(=O)Nc2nc3ccccc3s2)c(OC)c1
The “hERG current change (%, negative = inhibition) at 1uM” value of the first is lower: -8.6% for the first, 17.7% for the second.

First: CCOC(=O)c1sc(NC(=O)CCC(=O)O)nc1C
Second: CCc1nnc(NC(=O)CCS(=O)(=O)Cc2ccccc2)s1
The “hERG current change (%, negative = inhibition) at 1uM” value of the first is higher: 17.1% for the first, 14.1% for the second.

First: COc1cccc(NC(=O)CN(C)C(=O)c2c(C)nn(Cc3ccc(C)cc3)c2Cl)c1
Second: COc1ccc(-c2cc3c(=O)n(CC(=O)Nc4cccc(Cl)c4)ncn3n2)cc1
The “hERG current change (%, negative = inhibition) at 1uM” value of the first is lower: 6.87% for the first, 14.8% for the second.

Going from `Cc1cc(C)c2nc(SCC(=O)NCCN3C(=O)CSC3=O)cc(C)c2c1` to `Cc1cc(C)cc(N2CN=C3SCC(=O)N3C2)c1`, the “hERG current change (%, negative = inhibition) at 1uM” value rises from 6.41% to 8.94%.

First: CC1CCN(C(=O)COC(=O)c2ccc(=O)n(Cc3ccccc3)n2)CC1
Second: CC(CCc1ccccc1)NC(=O)C1CCC1 (centres unmarked)
The “hERG current change (%, negative = inhibition) at 1uM” value of the first is lower: 3.45% for the first, 8% for the second.

First: COc1ccccc1N1C(=NC(=O)COc2ccccc2)SC2CS(=O)(=O)CC21 (centres unmarked)
Second: O=C(O)c1ccccc1OCCOc1ccccc1
The “hERG current change (%, negative = inhibition) at 1uM” value of the first is higher: 20.3% for the first, 4.33% for the second.

Compared with `CCc1ccc(NC(=O)C(=O)NCC2CCCN2S(=O)(=O)c2cccs2)cc1` (centres unmarked), `Cc1[nH]c2ccccc2c1C(=O)COC(=O)C1CC(O)CN1S(=O)(=O)c1ccc(Cl)cc1` (centres unmarked) is lower in “hERG current change (%, negative = inhibition) at 1uM” value: 11.9% for the first, 11.2% for the second.

Compared with `COc1ccc(S(=O)(=O)N/N=C(/C)c2ccncc2)c(OC)c1`, `COc1ccc(OC)c(NC(=O)c2ccccc2NC(=O)c2ccco2)c1` is higher in “hERG current change (%, negative = inhibition) at 1uM” value: 1.74% for the first, 5.15% for the second.

First: CCOc1ccc(OCCC(=O)OCC(=O)N2CCN(c3ccc(OC)cc3)CC2)cc1
Second: COc1ccccc1N(CCC#N)C(=O)COC(=O)CCC(=O)c1ccc(F)cc1
The “hERG current change (%, negative = inhibition) at 1uM” value of the first is higher: 11.5% for the first, 11.2% for the second.

First: COc1cccc(C(=O)N/N=C(\C)c2ccc(NC(=O)Cc3ccccc3)cc2)c1OC
Second: Cn1c(=O)cc(OCCCC(=O)NCc2ccc3c(c2)OCO3)c2ccccc21
The “hERG current change (%, negative = inhibition) at 1uM” value of the first is higher: 14.9% for the first, 6.58% for the second.

First: CCN(CC)C(c1ccc(F)cc1)c1nnnn1CC1CCCO1.Cl (centres unmarked)
Second: Cc1ccc(C(c2nnnn2C(C)(C)C)N2CCN(C3CCCC3)CC2)cc1 (centres unmarked)
The “hERG current change (%, negative = inhibition) at 1uM” value of the first is higher: 16.1% for the first, 6.78% for the second.

Compared with `Cc1ccc2oc(C(=O)N(Cc3ccc(N(C)C)cc3)C3CCS(=O)(=O)C3)c(C)c2c1` (centres unmarked), `CCCc1ccccc1OCCNS(=O)(=O)c1cc2c(cc1C)OCC(=O)N2` is higher in “hERG current change (%, negative = inhibition) at 1uM” value: 1.31% for the first, 12.4% for the second.

Going from `COc1ccc(OC)c(N2C(=O)NC(=O)/C(=C/c3ccc([N+](=O)[O-])s3)C2=O)c1` to `COc1ccc(OC)c(CCNC(=O)CCc2nnc3ccc(N4CCCC4)nn23)c1`, the “hERG current change (%, negative = inhibition) at 1uM” value rises from 8.78% to 10.5%.

Compared with `CCN(CC)C(=O)c1sc(NC(=O)C(C)C)c(C#N)c1C`, `C=CCN1C(=O)C(C(C)CC)NC1=S` (centres unmarked) is lower in “hERG current change (%, negative = inhibition) at 1uM” value: 6.18% for the first, -2.59% for the second.

Compared with `Nn1cnnc1SCC(=O)N1CCc2ccccc2C1`, `CCCn1c(-c2ccccc2)nc2c(=O)n(C)c(=O)[nH]c21` is higher in “hERG current change (%, negative = inhibition) at 1uM” value: -10.1% for the first, 8.27% for the second.

First: CC(NC(=S)Nc1cccc(F)c1)C(c1cccs1)N1CCOCC1 (centres unmarked)
Second: O=C(NCc1cccs1)c1noc2c1CCCC2
The “hERG current change (%, negative = inhibition) at 1uM” value of the first is higher: 8.91% for the first, 3.93% for the second.
